# The list shows a part of the results.
# B1: Banana lectin (Musa acuminata) (protein)
# chain: MNGAIKVGAWGGNGGSAFDMGPAYRIISVKIFSGDVVDGVDVTFTYYGKTETRHYGGSGGTPHEIVLQEGEYLVGMAGEVANYHGAVVLGKLGFSTNKKAYGPFGNTGGTPFSLPIAAGKISGFFGRGGKFLDAIGVYLEPLEHHHHHH
# Tests used:
# Experiment in all cases: glycan array binding signal (z-score within array); higher = stronger binding
# Details in all cases: glycan notation: IUPAC condensed, linker removed
# [1] = target: Neu5Ac(a2-6)Gal(b1-4)GlcNAc(b1-3)Gal(b1-4)GlcNAc
# Summary of the method: (§1)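 Glycan array data were curated from 3228 arrays in the Consortium for Functional Glycomics database and kept only where the protein sequence was available. Glycan names were converted to IUPAC-condensed notation, and columns mapping to the same glycan were averaged. The binding signal is a within-array Z-score, averaged across arrays of the same protein sequence at different concentrations or buffers and across linkers. Negative Z-scores can be read as non-binding.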
# [2] = target: Neu5Ac(a2-6)Gal(b1-4)GlcNAc(b1-3)Gal(b1-4)GlcNAc(b1-2)Man(a1-3)[Neu5Ac(a2-6)Gal(b1-4)GlcNAc(b1-3)Gal(b1-4)GlcNAc(b1-2)Man(a1-6)]GalNAc
# Summary of the method: as §1
# [3] = target: Neu5Ac(a2-6)Gal(b1-4)GlcNAc(b1-3)Gal(b1-4)GlcNAc(b1-3)Gal(b1-4)GlcNAc
# Summary of the method: as §1
# [4] = target: Neu5Ac(a2-6)Gal(b1-4)GlcNAc(b1-3)Gal(b1-4)GlcNAc(b1-3)Gal(b1-4)GlcNAc(b1-2)Man(a1-3)[Neu5Ac(a2-6)Gal(b1-4)GlcNAc(b1-3)Gal(b1-4)GlcNAc(b1-3)Gal(b1-4)GlcNAc(b1-2)Man(a1-6)]GalNAc
# Summary of the method: as §1
# [5] = target: Neu5Ac(a2-6)Gal(b1-4)GlcNAc(b1-3)Gal(b1-4)GlcNAc(b1-3)GalNAc
# Summary of the method: as §1
# [6] = target: Neu5Ac(a2-6)Gal(b1-4)GlcNAc(b1-3)Gal(b1-4)GlcNAc(b1-3)[Neu5Ac(a2-6)Gal(b1-4)GlcNAc(b1-3)Gal(b1-4)GlcNAc(b1-6)]GalNAc
# Summary of the method: as §1
# [7] = target: Neu5Ac(a2-6)Gal(b1-4)GlcNAc(b1-3)Gal(b1-4)GlcNAc(b1-6)[Gal(b1-3)]GalNAc
# Summary of the method: as §1
# [8] = target: Neu5Ac(a2-6)Gal(b1-4)GlcNAc(b1-3)Gal(b1-4)[Fuc(a1-3)]GlcNAc(b1-3)Gal(b1-4)[Fuc(a1-3)]GlcNAc
# Summary of the method: as §1
# [9] = target: Neu5Ac(a2-6)Gal(b1-4)GlcNAc(b1-3)GalNAc
# Summary of the method: as §1
# [10] = target: Neu5Ac(a2-6)Gal(b1-4)GlcNAc(b1-3)[Neu5Ac(a2-6)Gal(b1-4)GlcNAc(b1-6)]GalNAc
# Summary of the method: as §1
# [11] = target: Neu5Ac(a2-6)Gal(b1-4)GlcNAc(b1-6)GalNAc
# Summary of the method: as §1
# [12] = target: Neu5Ac(a2-6)Gal(b1-4)GlcNAc(b1-6)[Gal(b1-3)GlcNAc(b1-3)]Gal(b1-4)Glc
# Summary of the method: as §1
# [13] = target: Neu5Ac(a2-6)Gal(b1-4)GlcNAc(b1-6)[Gal(b1-3)]GalNAc
# Summary of the method: as §1
# [14] = target: Neu5Ac(a2-6)Gal(b1-4)GlcNAc6S
# Summary of the method: as §1
# [15] = target: Neu5Ac(a2-6)GalNAc
# Summary of the method: as §1
# [16] = target: Neu5Ac(a2-6)GalNAc(b1-4)GlcNAc
# Summary of the method: as §1
# [17] = target: Neu5Ac(a2-6)GalNAc(b1-4)GlcNAc6S
# Summary of the method: as §1
# [18] = target: Neu5Ac(a2-6)GlcNAc(b1-4)GlcNAc
# Summary of the method: as §1
# [19] = target: Neu5Ac(a2-6)GlcNAc(b1-4)GlcNAc(b1-4)GlcNAc
# Summary of the method: as §1
# [20] = target: Neu5Ac(a2-8)Neu5Ac
# Summary of the method: as §1
# [21] = target: Neu5Ac(a2-8)Neu5Ac(a2-3)Gal(b1-3)GalNAc(b1-4)[Neu5Ac(a2-3)]Gal(b1-4)Glc
# Summary of the method: as §1
# [22] = target: Neu5Ac(a2-8)Neu5Ac(a2-3)Gal(b1-3)GalNAc(b1-4)[Neu5Ac(a2-8)Neu5Ac(a2-3)]Gal(b1-4)Glc
# Summary of the method: as §1
# [23] = target: Neu5Ac(a2-8)Neu5Ac(a2-3)Gal(b1-4)Glc
# Summary of the method: as §1
# [24] = target: Neu5Ac(a2-8)Neu5Ac(a2-3)Gal(b1-4)GlcNAc
# Summary of the method: as §1
# [25] = target: Neu5Ac(a2-8)Neu5Ac(a2-3)[Gal(b1-3)GalNAc(b1-4)]Gal(b1-4)Glc
# Summary of the method: as §1
# [26] = target: Neu5Ac(a2-8)Neu5Ac(a2-3)[GalNAc(b1-4)]Gal(b1-4)Glc
# Summary of the method: as §1
# [27] = target: Neu5Ac(a2-8)Neu5Ac(a2-8)Neu5Ac
# Summary of the method: as §1
# [28] = target: Neu5Ac(a2-8)Neu5Ac(a2-8)Neu5Ac(a2-3)Gal(b1-4)Glc
# Summary of the method: as §1
# [29] = target: Neu5Ac(a2-8)Neu5Ac(a2-8)Neu5Ac(a2-3)[Gal(b1-3)GalNAc(b1-4)]Gal(b1-4)Glc
# Summary of the method: as §1
# [30] = target: Neu5Ac(a2-8)Neu5Ac(a2-8)Neu5Ac(a2-3)[GalNAc(b1-4)]Gal(b1-4)Glc
# Summary of the method: as §1
# [31] = target: Neu5Ac(a2-8)Neu5Ac(a2-8)Neu5Ac(a2-8)Neu5Ac(a2-3)[GalNAc(b1-4)]Gal(b1-4)Glc
# Summary of the method: as §1
# [32] = target: Neu5Ac(a2-8)Neu5Gc(a2-3)Gal(b1-4)GlcNAc
# Summary of the method: as §1
# [33] = target: Neu5Ac(b2-6)Gal(b1-4)GlcNAc
# Summary of the method: as §1
# [34] = target: Neu5Ac(b2-6)GalNAc
# Summary of the method: as §1
# [35] = target: Neu5Ac9Ac(a2-3)Gal(b1-3)GlcNAc
# Summary of the method: as §1
# [36] = target: Neu5Ac9Ac(a2-3)Gal(b1-4)GlcNAc
# Summary of the method: as §1
# [37] = target: Neu5Ac9Ac(a2-6)Gal(b1-4)GlcNAc
# Summary of the method: as §1
# [38] = target: Neu5Gc(a2-3)Gal(b1-3)GlcNAc
# Summary of the method: as §1
# [39] = target: Neu5Gc(a2-3)Gal(b1-3)[Fuc(a1-4)]GlcNAc
# Summary of the method: as §1
# [40] = target: Neu5Gc(a2-3)Gal(b1-4)Glc
# Summary of the method: as §1
# [41] = target: Neu5Gc(a2-3)Gal(b1-4)GlcNAc
# Summary of the method: as §1
# [42] = target: Neu5Gc(a2-3)Gal(b1-4)GlcNAc(b1-3)Gal(b1-4)GlcNAc(b1-2)Man(a1-3)[Neu5Gc(a2-3)Gal(b1-4)GlcNAc(b1-3)Gal(b1-4)GlcNAc(b1-2)Man(a1-6)]Man(b1-4)GlcNAc(b1-4)GlcNAc
# Summary of the method: as §1
# [43] = target: Neu5Gc(a2-3)Gal(b1-4)[Fuc(a1-3)]GlcNAc
# Summary of the method: as §1
# [44] = target: Neu5Gc(a2-6)Gal(b1-4)GlcNAc
# Summary of the method: as §1
# [45] = target: Neu5Gc(a2-6)GalNAc
# Summary of the method: as §1
binder,measurement,setting,value
B1,glycan array binding signal (z-score),[1],-0.226
same,glycan array binding signal (z-score),[2],0.219
same,glycan array binding signal (z-score),[3],-0.222
same,glycan array binding signal (z-score),[4],-0.169
same,glycan array binding signal (z-score),[5],-0.223
same,glycan array binding signal (z-score),[6],-0.161
same,glycan array binding signal (z-score),[7],-0.191
same,glycan array binding signal (z-score),[8],-0.219
same,glycan array binding signal (z-score),[9],-0.214
same,glycan array binding signal (z-score),[10],-0.175
same,glycan array binding signal (z-score),[11],-0.243
same,glycan array binding signal (z-score),[12],-0.212
same,glycan array binding signal (z-score),[13],-0.191
same,glycan array binding signal (z-score),[14],-0.22
same,glycan array binding signal (z-score),[15],-0.204
same,glycan array binding signal (z-score),[16],-0.221
same,glycan array binding signal (z-score),[17],-0.227
same,glycan array binding signal (z-score),[18],-0.182
same,glycan array binding signal (z-score),[19],-0.173
same,glycan array binding signal (z-score),[20],-0.21
same,glycan array binding signal (z-score),[21],-0.192
same,glycan array binding signal (z-score),[22],-0.179
same,glycan array binding signal (z-score),[23],-0.248
same,glycan array binding signal (z-score),[24],-0.215
same,glycan array binding signal (z-score),[25],-0.221
same,glycan array binding signal (z-score),[26],-0.182
same,glycan array binding signal (z-score),[27],-0.182
same,glycan array binding signal (z-score),[28],-0.139
same,glycan array binding signal (z-score),[29],-0.215
same,glycan array binding signal (z-score),[30],-0.199
same,glycan array binding signal (z-score),[31],-0.142
same,glycan array binding signal (z-score),[32],-0.242
same,glycan array binding signal (z-score),[33],-0.214
same,glycan array binding signal (z-score),[34],-0.209
same,glycan array binding signal (z-score),[35],-0.228
same,glycan array binding signal (z-score),[36],-0.23
same,glycan array binding signal (z-score),[37],-0.197
same,glycan array binding signal (z-score),[38],-0.233
same,glycan array binding signal (z-score),[39],-0.219
same,glycan array binding signal (z-score),[40],-0.209
same,glycan array binding signal (z-score),[41],-0.215
same,glycan array binding signal (z-score),[42],-0.308
same,glycan array binding signal (z-score),[43],-0.205
same,glycan array binding signal (z-score),[44],-0.212
same,glycan array binding signal (z-score),[45],-0.232

# Source: the supplement of paper PMC8728848
